These are yes or no findings as the source states them, for the method shown. For some assays here: In cells and extracts the contact can be indirect. Some binding calls cover weakened binding; strength is not graded here. For some assays here: Where a sequence is shown, tags or fusion partners need not be part of it.

Protein sequences, listed by entry. Tags and fused reporters are not part of them. Lines headed by an entry give the natural chain unless they say otherwise; changes in a name come on top.
UniProt Q24JK1: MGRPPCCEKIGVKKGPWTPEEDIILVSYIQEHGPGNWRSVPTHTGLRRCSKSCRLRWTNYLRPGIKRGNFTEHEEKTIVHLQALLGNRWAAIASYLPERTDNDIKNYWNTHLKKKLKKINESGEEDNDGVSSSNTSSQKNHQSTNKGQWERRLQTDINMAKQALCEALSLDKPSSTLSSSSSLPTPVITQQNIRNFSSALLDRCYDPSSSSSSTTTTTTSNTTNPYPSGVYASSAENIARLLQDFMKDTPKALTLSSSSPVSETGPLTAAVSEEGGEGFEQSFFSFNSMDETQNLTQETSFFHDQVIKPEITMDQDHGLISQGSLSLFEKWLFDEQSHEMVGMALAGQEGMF

Experiment [1] has as its target T1, N-terminal region of MIEL1 (residues 1-140) (Arabidopsis thaliana) (UniProt Q8VZK0).
T1 sequence: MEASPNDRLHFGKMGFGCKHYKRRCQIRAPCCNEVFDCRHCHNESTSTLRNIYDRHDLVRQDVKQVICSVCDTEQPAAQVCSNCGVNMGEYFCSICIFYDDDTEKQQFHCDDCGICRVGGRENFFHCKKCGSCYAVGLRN
The experiment in a line: two-hybrid; BD Matchmaker system, yeast AH109; deletion constructs; beta-galactosidase activity in liquid culture with o-nitrophenyl-beta-D-galactopyranoside as substrate.

Experiment [2] addresses T2, GAL4 DNA-binding domain (BD)-MIEL1 fusion (MYB30-… E3 LIGASE 1) (Arabidopsis thaliana) (UniProt Q8VZK0).
T2 sequence: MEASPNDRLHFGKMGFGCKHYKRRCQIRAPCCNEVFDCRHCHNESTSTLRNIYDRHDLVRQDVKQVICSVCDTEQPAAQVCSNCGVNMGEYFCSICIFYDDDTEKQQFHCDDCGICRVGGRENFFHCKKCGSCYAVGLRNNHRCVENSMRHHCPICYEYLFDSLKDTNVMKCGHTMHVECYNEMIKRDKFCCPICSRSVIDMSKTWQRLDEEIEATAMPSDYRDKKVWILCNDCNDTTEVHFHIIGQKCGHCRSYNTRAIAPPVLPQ
Nature of the experiment: two-hybrid; BD Matchmaker system, yeast AH109; BD-MIEL1 co-expressed with AD-MYB96; cell growth on selective media (-LWHA).

For experiment [3], the target named is T3, ATL43, GAL4 BD fusion (Arabidopsis thaliana) (UniProt Q5EAE9).
T3 sequence: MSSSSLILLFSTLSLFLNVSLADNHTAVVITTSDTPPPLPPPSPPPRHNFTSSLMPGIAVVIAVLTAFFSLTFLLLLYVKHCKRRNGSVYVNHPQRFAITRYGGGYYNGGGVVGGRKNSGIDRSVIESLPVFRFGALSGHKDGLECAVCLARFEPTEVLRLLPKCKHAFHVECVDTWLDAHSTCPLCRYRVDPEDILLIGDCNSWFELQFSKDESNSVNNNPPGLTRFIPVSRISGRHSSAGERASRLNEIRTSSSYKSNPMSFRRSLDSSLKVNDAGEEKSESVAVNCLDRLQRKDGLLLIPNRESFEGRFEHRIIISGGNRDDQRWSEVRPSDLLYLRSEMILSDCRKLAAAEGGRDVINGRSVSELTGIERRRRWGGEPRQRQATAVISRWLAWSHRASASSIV
Nature of the experiment: two-hybrid; specificity test in yeast cells: GAL4 BD fusions of E3 Ub ligases co-expressed with GAL4 AD-MYB96; MIEL1 against other transcriptional regulators (Supplementary Fig. 6); read-out not stated.

Experiment [4] concerns the target T4, ABI3 …ON PROTEIN 2 (AIP2), GAL4 BD fusion (Arabidopsis thaliana) (UniProt Q8RXD3).
T4 sequence: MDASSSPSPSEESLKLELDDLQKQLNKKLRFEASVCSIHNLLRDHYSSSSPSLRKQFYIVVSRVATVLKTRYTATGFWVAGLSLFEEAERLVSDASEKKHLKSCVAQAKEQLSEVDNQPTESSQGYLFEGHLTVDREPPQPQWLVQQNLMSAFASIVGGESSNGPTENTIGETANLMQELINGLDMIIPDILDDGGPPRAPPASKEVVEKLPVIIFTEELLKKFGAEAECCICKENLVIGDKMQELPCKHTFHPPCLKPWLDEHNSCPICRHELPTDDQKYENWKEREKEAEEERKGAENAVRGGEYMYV
The experiment is described as above.

Experiment [5] deals with T2, GAL4 DNA-binding domain (BD)-MIEL1 fusion (MYB30-… E3 LIGASE 1) (Arabidopsis thaliana). The experiment is described as above.
Experiment [6] addresses T5, ARM REPEAT PROTEIN … WITH ABF2, GAL4 BD fusion (Arabidopsis thaliana) (UniProt B9DHT4).
T5 sequence: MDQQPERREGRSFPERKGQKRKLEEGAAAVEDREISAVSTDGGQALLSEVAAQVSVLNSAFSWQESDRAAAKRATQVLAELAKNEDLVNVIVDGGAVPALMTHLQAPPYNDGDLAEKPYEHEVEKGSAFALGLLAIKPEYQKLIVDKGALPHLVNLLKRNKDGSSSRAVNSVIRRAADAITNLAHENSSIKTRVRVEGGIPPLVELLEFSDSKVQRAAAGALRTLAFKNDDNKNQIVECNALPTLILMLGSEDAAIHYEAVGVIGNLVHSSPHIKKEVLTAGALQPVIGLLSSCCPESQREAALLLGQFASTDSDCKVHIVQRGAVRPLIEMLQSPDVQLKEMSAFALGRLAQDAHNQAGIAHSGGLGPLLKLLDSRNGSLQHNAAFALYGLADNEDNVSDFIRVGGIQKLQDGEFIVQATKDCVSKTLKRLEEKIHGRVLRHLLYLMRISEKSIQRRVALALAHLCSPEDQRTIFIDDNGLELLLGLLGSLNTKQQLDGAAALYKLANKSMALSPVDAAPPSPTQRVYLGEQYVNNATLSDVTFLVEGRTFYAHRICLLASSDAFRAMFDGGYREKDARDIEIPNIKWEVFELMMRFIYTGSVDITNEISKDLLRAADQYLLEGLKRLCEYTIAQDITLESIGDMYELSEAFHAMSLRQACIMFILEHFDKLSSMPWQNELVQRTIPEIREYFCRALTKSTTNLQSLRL
The experiment is described as above.

In experiment [7] the target is T6, XERICO, GAL4 BD fusion (Arabidopsis thaliana) (UniProt Q9SI09).
T6 sequence: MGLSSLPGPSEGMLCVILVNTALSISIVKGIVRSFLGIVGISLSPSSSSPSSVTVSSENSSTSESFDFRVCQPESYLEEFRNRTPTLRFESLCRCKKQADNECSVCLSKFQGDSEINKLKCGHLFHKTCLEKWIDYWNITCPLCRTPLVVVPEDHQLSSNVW
The description is as above.

Experiment [8] addresses T7, CARBOXYL TERMINUS OF HSC70-… PROTEIN, GAL4 BD fusion (Arabidopsis thaliana) (UniProt Q9SRS9).
T7 sequence: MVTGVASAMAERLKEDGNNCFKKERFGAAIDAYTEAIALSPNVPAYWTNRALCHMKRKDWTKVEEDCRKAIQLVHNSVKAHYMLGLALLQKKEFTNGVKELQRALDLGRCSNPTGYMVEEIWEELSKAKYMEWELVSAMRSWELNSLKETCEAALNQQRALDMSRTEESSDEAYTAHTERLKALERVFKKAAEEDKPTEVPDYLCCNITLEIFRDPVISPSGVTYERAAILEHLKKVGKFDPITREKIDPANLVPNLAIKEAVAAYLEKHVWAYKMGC
The description is as above.

Experiment [9] deals with T8, MIEL1-MYC (Arabidopsis thaliana) (UniProt Q8VZK0).
T8 sequence: T2 sequence
Nature of the experiment: co-IP; MIEL1-MYC and MYB96-GFP transiently co-expressed in N. benthamiana leaves; extract precipitated with anti-MYC antibodies on Protein-A sepharose, 4 h at 4 °C; 25 mM Tris-HCl pH 7.5, 150 mM NaCl, 0.05% Nonidet P-40; blots with anti-MYC or anti-GFP.

In experiment [10] the target is T9, MIEL1 fused to the N-terminal half of EYFP (Arabidopsis thaliana) (UniProt Q8VZK0).
T9 sequence: T2 sequence
The experiment in a line: split reporter; BiFC; partial EYFP fusions transiently co-expressed in Arabidopsis protoplasts; confocal fluorescence microscopy.

Experiment [11] has as its target T2, GAL4 DNA-binding domain (BD)-MIEL1 fusion (MYB30-… E3 LIGASE 1) (Arabidopsis thaliana). Nature of the experiment: two-hybrid; BD Matchmaker system, yeast AH109; deletion constructs; beta-galactosidase activity in liquid culture with o-nitrophenyl-beta-D-galactopyranoside as substrate.

As for “GAL4 activation domain (AD)-MYB96 fusion, full-size MYB96 (from UniProt Q24JK1 1-352)”, the binding result is given as “binds” in experiment [1]; “binds” in [2]; “no binding” in experiment [3]; “no binding” in experiment [4]; “binds” in experiment [5]; “no binding” in experiment [6]. Further, the binding result in [7] and in experiment [8] was “no binding” throughout.
For MYB96-GFP (from UniProt Q24JK1 1-352), in experiment [9], the binding entry is on record as “binds”.
Turning to “MYB96 fused to the C-terminal half of EYFP (from UniProt Q24JK1 1-352)”, the binding result in experiment [10] is “binds”.
As for “N-terminal region of MYB96 (residues 1-143) (from UniProt Q24JK1 1-143) (domain or fragment)”, in [11], the binding result is given as “binds”.

The values above are taken from publication PMC5027273.
